# Out of some 310,000 compounds screened, about 14,000 (4.5%) showed an effect of 50% or more. Effects have a minus sign here. Some of the results follow.
# Target: human ether-à-go-go-related gene (hERG) potassium channel (human, UniProt Q12809)
# Assay: primary screen, population patch clamp on CHO cells stably expressing hERG
# 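Note: peak tail current of the secondary pulse compared with the same well before compound.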
# human ether-à-go-go-related gene (hERG) potassium channel, sequence (Q12809 whole entry, looked up): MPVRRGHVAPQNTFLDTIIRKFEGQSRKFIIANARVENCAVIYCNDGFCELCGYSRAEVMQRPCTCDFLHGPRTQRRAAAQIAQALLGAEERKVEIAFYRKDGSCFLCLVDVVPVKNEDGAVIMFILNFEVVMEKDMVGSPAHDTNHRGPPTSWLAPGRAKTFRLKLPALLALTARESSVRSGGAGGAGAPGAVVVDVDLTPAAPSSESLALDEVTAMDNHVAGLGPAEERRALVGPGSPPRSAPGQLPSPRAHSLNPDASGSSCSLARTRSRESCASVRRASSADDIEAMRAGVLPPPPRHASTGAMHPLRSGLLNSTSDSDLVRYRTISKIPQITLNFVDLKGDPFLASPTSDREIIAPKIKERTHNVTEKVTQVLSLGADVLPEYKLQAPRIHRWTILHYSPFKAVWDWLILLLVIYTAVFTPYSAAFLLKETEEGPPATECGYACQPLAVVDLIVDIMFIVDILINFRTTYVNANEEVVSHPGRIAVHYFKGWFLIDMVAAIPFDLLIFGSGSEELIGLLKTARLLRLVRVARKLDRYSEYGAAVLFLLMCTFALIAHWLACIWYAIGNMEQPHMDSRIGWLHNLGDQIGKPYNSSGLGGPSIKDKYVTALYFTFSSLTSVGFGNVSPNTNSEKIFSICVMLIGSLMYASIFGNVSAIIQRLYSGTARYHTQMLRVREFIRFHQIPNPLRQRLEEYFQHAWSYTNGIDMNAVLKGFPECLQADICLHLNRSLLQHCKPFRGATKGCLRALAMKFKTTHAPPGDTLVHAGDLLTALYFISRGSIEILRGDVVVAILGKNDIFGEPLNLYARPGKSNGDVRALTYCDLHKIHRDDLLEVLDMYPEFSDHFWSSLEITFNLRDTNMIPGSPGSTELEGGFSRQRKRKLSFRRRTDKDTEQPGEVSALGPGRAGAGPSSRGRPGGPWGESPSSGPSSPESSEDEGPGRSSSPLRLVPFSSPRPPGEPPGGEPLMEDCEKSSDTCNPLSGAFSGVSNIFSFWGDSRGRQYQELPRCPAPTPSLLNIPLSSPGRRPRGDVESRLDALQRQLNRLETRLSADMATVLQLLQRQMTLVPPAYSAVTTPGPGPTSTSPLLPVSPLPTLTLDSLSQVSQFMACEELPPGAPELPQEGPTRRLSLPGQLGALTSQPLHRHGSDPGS
row,Structure (SMILES),"hERG current change (%, negative = inhibition) at 10uM [%]"
1,COc1cccc(COC(=O)C2CCN(C(=O)c3ccccc3C)CC2)c1OC,9.21
2,CCOc1ccc(N(CC(=O)NC2CCCC2)C(=O)c2ccc(C)s2)cc1,-33.6
3,C#CCn1c(=NC(=O)c2ccc(S(=O)(=O)N3CCc4ccccc4C3)cc2)sc2cc(S(N)(=O)=O)ccc21,8.51
4,COc1cc2cc(Oc3ccc4ccc(=O)oc4c3)c(=O)oc2cc1OC1OC(COC(=O)CC(C)(O)CC(=O)O)C(O)C(O)C1O (stereo not shown),23.2
5,CCN(CC)S(=O)(=O)c1ccc2c(c1)c(=O)c(C(=O)NCc1ccc3c(c1)OCO3)cn2C,-1.08
6,Cc1nn(C)cc1CN(C)C(=O)c1nn2c(c1Cl)NC(c1cccs1)CC2C(F)(F)F (stereo not shown),-17.4
7,C/C(N)=C(/C#N)C(=O)CSc1nnc(COc2cc(C)ccc2C)o1,17.1
8,CCCCOc1ccc(C(=O)OC2CC(C)N(C)CC2C)cc1 (stereo not shown),-25.4
9,O=[N+]([O-])c1nn(-c2ccc3c(c2)OCCO3)n(O)c1=NC1CCCC1,19.5
10,CCOC(=O)c1cc(-c2nnc(SCC(=O)Nc3ccc(F)cc3)o2)c(C)nc1C,7.9
11,C#CC[N+](C)(C)CCCCCCCCC.[Br-],-54.9
12,O=C(Oc1cccc(OC(=O)c2ccco2)c1)c1ccco1,23.7
13,CCC(C)[C@@H](C(=O)Nc1ccc(OC)c(OC)c1)N1Cc2ccccc2C1=O (stereo partly shown),-9.42
14,CC(C)NCC(=O)NC12CC3CC(CC(C3)C1)C2.Cl,4.75
15,Cc1nnc(NC(=O)CSc2nnc(Cc3ccccc3)n2Cc2ccccc2)s1,0.574
16,O=C(CCCCCn1c(=O)[nH]c2ccccc2c1=O)NCCCN1CCN(c2ccccc2F)CC1,-79.2
17,CSc1cc(-c2ccc(Cl)cc2)n(Cc2ccccc2)c(=O)c1C#N,18
18,O=[N+]([O-])c1cccc(N2Cc3ccccc3C2)c1,-11.6
19,Cl.O=C(NNC(=O)c1cccc(C(F)(F)F)c1)c1ccncc1,14
20,CCCC(C(=O)NC1CCCC1)N(Cc1cccs1)C(=O)c1snc(C(N)=O)c1N (stereo not shown),-35.6
21,CCOC(=O)N1CCN(c2nc3ccccc3nc2C(C#N)C(=O)NCCc2ccccc2)CC1 (stereo not shown),7.98
22,CN(C)C=O.N#Cc1ccc(Cl)cc1NC(=O)CSc1nc2nc(-c3cccs3)cc(C(F)(F)F)c2c(=O)[nH]1,22.9
